Measurements reported in PubChem BioAssay AID686979 (National Center for Advancing Translational Sciences (NCATS), 2013).
“And” between values parts separate entries of the source, which are not always exact repeats. Equal values may be shown once. The campaign covered roughly 420,000 compounds. About 50,000 (12%) were called active. Inconclusive results, whose numbers are uncertain, are shown with a selection of clear calls. Calls come from the whole dose curve; as a rule, active = well fitted inhibition curve with a large enough effect; inconclusive = small, poorly fitted or top-dose-only effect; inactive = flat fitted curve, though single readings scatter. Potencies of inconclusive entries are left out as doubtful fits.

assay: qHTS for Inhibitors of human tyrosyl-DNA phosphodiesterase 1 (TDP1): qHTS in cells in presence of CPT; conditions: chicken DT40 Tdp1-/-;hTDP1 cells + 20 nM CPT, ATP luminescence, 48 h; activity change, negative = growth inhibition: at 46.2 µM (top of the series) unless noted; note: nearly all actives have a fitted effect of over 55% in size
Outline: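 Cell growth measured by CellTiter-Glo luminescence after a minimum 48 h, 37 C compound exposure with 20 nM CPT in Tdp1-knockout DT40 cells stably expressing hTDP1, seeded 400/well; qHTS titration format.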
% is set by controls: 0 for no effect and ±100 for the full control effect; potency is the fitted concentration of half-maximal effect; tags give direction and shape of the fitted curve.

| SMILES | Potency | activity change, negative = growth inhibition |
| --- | --- | --- |
| CC(C)C[C@H]1CNC(=S)N1CC1CCCN1C[C@H](Cc1ccccc1)N1C[C@H](Cc2ccccc2)N(CC2CCCCC2)C1=S (stereo partly drawn) | inconclusive [inhibitor, single point] |  |
| COc1ccc(NC(=O)C[C@H]2C(=O)N(C3CCCCC3)C[C@@H]2c2ccc(OC)cc2)cc1 | inconclusive [inhibitor, single point] |  |
| O=C1N/C(=N/S(=O)(=O)c2ccccc2)S/C1=C/c1cccnc1 | inconclusive [inhibitor, single point] |  |
| CN(C)c1ccc(C(CNS(=O)(=O)c2ccc(F)c(F)c2)c2c[nH]c3ccccc23)cc1 (stereo not drawn) | inconclusive [inhibitor, single point] |  |
| CN1CCN(C(=O)CCN2C(=O)/C(=C/c3ccccc3Cl)SC2=S)CC1 | active: 16.4 µM |  |
| CN1CCN(S(=O)(=O)c2ccc(NN)nc2)CC1 | inconclusive [inhibitor, single point] |  |
| Cc1cc(Br)cn2c(Cc3cccc(Cl)c3)c(-c3ccco3)nc12 | inconclusive [inhibitor, single point] |  |
| COc1cccc(-c2ccc3c(c2)O[C@@H](CN(C)Cc2cncnc2)[C@@H](C)CN([C@H](C)CO)S3(=O)=O)c1 | active: 23.1 µM |  |
| COc1ccccc1N1CCN(S(=O)(=O)CCNC(=O)COc2ccc(F)cc2)CC1 | inconclusive [inhibitor, partial curve, poor fit] |  |
| Nc1nonc1-n1nnc(C(=O)N/N=C/c2ccc(Cl)cc2Cl)c1CN1CCCCC1 | inconclusive [inhibitor, single point] |  |
| COc1cccc(C(=O)Oc2ccc3ccc(O)cc3c2)c1 |  | inactive: -2.19% |
| COc1ccc(CCNc2ncnc3c2c(-c2ccccc2)cn3-c2cccc(Cl)c2)cc1OC | active: 7.31 µM |  |
| Cc1cc(Nc2ccccc2)n(-c2nc3ccccc3[nH]2)n1 | inconclusive [inhibitor, single point] |  |
| CS(=O)(=O)NCCOc1ccc(S(=O)(=O)N2CCCc3ccccc32)cc1 | inconclusive [inhibitor, single point] |  |
| C[C@@H](NC(=O)c1nc[nH]c1C(=O)N1CCc2ccccc2C1)c1ccccc1 | inconclusive [inhibitor, single point] |  |
| N#CC1=C(N)NC(SCC(=O)Nc2ccccc2)=C(C#N)C12CCCCC2 | inconclusive [inhibitor, partial curve] |  |
| Cc1cccc(C)c1NC(=O)Nc1ccc(S(N)(=O)=O)cc1 |  | inactive: 1.99% |
| CCOC(=O)C1=CC[C@@H](c2cc3cc(OC)ccc3n2C)N(S(=O)(=O)c2ccc(C)cc2)[C@H]1C(=O)OCC | inconclusive [inhibitor, partial curve, poor fit] |  |
| O=C(c1cnccn1)N1CCC2(CCCN(c3ccc(-c4ccccc4)cc3)C2)CC1 | inconclusive [inhibitor, single point] |  |
| CC(C)CN1CCN(Cc2nc(C(C)C)cs2)CC1CCO (stereo not drawn) |  | inactive: 21.7% |
| CCc1ccc(NC(=O)CC2C(=O)N(c3ccc(OC)cc3)C(=O)N2Cc2ccc(OC)cc2)cc1 (stereo not drawn) | inconclusive [inhibitor, single point] |  |
| Cc1c(C(=O)NCCc2ccccc2)cccc1-n1cnc2cccnc21 | inconclusive [inhibitor, single point] |  |
| COC(=O)c1cc(NS(=O)(=O)c2ccc(NC(C)=O)cc2)ccc1Cl | inconclusive [inhibitor, partial curve, poor fit] |  |

| SMILES | Potency | activity change, negative = growth inhibition |
| --- | --- | --- |
| CCN(CC)S(=O)(=O)c1ccc(N2CCOCC2)c(NC(=O)c2cccc3ccccc23)c1 | active: 25.9 µM |  |
| C/C(=N\Nc1nc(N)cc(Cl)n1)c1cccc(N)c1 | inconclusive [inhibitor, single point] |  |
| CSc1ccc(/C=N/Nc2cccc(C(=O)O)c2)cc1 |  | inactive: 3.04% |
| CCCc1nc2c(C)cc(Br)cn2c1Cc1ccccc1 | inconclusive [inhibitor, single point] |  |
| CC(C)CC1Nc2ncnc(N3CCN(c4ccccc4)CC3)c2N(Cc2ccccc2)C1=O (stereo not drawn) | active: 14.6 µM and active: 16.4 µM |  |
| CCC1CN(CCNC(=O)c2cc(C)nn2CC)Cc2cc(OC)ccc2O1 (stereo not drawn) |  | inactive: -2.52% [at 9.04 µM] |
| CCNC(=S)NNc1ccccc1 | active: 3.26 µM |  |
| O=C(NC1CCOc2ccccc21)c1ccccn1 (stereo not drawn) |  | inactive: 4.97% |
| COc1ccccc1CNC(=O)C1CCN(S(=O)(=O)c2c(C)noc2/C=C/c2cccs2)CC1 | active: 18.4 µM |  |
| Cc1ccc2nc(-c3ccccc3)c(Cc3ccsc3)n2c1 | active: 14.6 µM |  |
| COc1ccc(C(CNC(=O)c2[nH]c(C)c(C(C)=O)c2C)N2CCOCC2)cc1 (stereo not drawn) |  | inactive: -27.2% |
| CSc1ccc(/C=C/c2ccc3cccc(O)c3n2)cc1 | active: 16.4 µM |  |
| CCN1CCN(c2ccc(S(=O)(=O)N3CCOCC3)cc2NC(=O)c2ccc(C(F)(F)F)cc2)CC1 |  | inactive: -5.43% |
| Cn1cccc1C(C(=O)NC1CCCCC1)N(C(=O)Cc1cccs1)C1CC1 (stereo not drawn) | inconclusive [inhibitor, single point] |  |
| CN(Cc1ccccc1)C(=O)COC(=O)/C=C/c1ccco1 |  | inactive: 2.82% |
| Cc1ccc(C2=CN(Cc3ccccc3)CCC2=O)cc1 | active: 20.6 µM |  |
| NCC(O)(c1ccc(Cl)cc1)c1ccc(Cl)cc1 | active: 16.4 µM |  |
| CS(=O)(=O)NCCc1csc2nc(-c3ccccc3)nn12 |  | inactive: -3.72% |
| Cc1ccc(N=Nc2c(N)nn3c(N)c(C#N)c(C)nc23)cc1 | inconclusive [inhibitor, partial curve] |  |
| CCCCC[C@@H]1[C@H]2[C@H]3C(=O)N(c4ccccc4)C(=O)[C@H]3CC(=O)[C@H]2[C@H](c2ccccc2)N1S(=O)(=O)c1ccc(C)cc1 |  | inactive: 19.6% |
| COc1ccccc1NC(=O)CSc1nccn1Cc1ccc(F)cc1 | inconclusive [inhibitor, single point] |  |
| COc1cccc(NC(=O)C2CC(=O)N(C)C(=Nc3cccc(F)c3)S2)c1 (stereo not drawn) | inconclusive [inhibitor, single point] |  |
| COc1ccc(S(=O)(=O)NC2(C(F)(F)F)NC(=O)N(CCc3ccc(OC)c(OC)c3)C2=O)cc1 (stereo not drawn) | inconclusive [inhibitor, full curve, poor fit] |  |

| SMILES | Potency | activity change, negative = growth inhibition |
| --- | --- | --- |
| Cc1cc(=O)c(C(=O)Nc2ccc(N3CCOCC3)cc2N2CCOCC2)nn1-c1ccccc1Cl |  | inactive: -22% |
| CCOC(=O)C1=CCN(S(=O)(=O)c2ccc(C)cc2)C1c1ccc(CC)cc1 (stereo not drawn) | inconclusive [inhibitor, single point] |  |
| CCCN1C(=O)/C(=C/c2ccc(N3CCOCC3)cc2)NC1=S | inconclusive [inhibitor, single point] |  |
| COc1cccc(NC(=O)COC(=O)c2c(C)nn(-c3ccccc3)c2C)c1 | inconclusive [inhibitor, single point] |  |
| O=c1oc(-c2ccco2)nc2c1cnn2-c1ccccc1 | inconclusive [inhibitor, single point] |  |
| COc1ccc(S(=O)(=O)Nc2ccc3c(c2)C(=O)N([C@H](C)CO)C[C@H](C)[C@@H](CN(C)C(=O)Nc2ccc(C(F)(F)F)cc2)OCCCC[C@H](C)O3)cc1 | inconclusive [inhibitor, single point] |  |
| CCN(CC)C(=O)CSc1nc2c(sc(=S)n2-c2ccccc2)c(=O)n1-c1ccc(OC)cc1OC | inconclusive [inhibitor, single point] |  |
| COc1ccc(CCN2C(=O)N(c3ccc(OC)cc3)C(=O)C2CC(=O)Nc2ccc(OC)cc2)cc1 (stereo not drawn) | inconclusive [inhibitor, single point] |  |
| Clc1ccc(C2Nc3cccc4cccc(c34)N2)c(Cl)c1 | inconclusive [inhibitor, partial curve] |  |
| O=C(CCC1CCCN(C(=O)c2ccc3cc[nH]c3c2)C1)NCc1ccc(F)c(F)c1 (stereo not drawn) |  | inconclusive: -32.1% [inhibitor] |
| Cc1cc(Nc2ccccc2Cl)n2nc(-c3ccco3)nc2n1 | inconclusive [inhibitor, single point] |  |
| COc1cccc(NC(=O)N(Cc2cn(C)c3ccccc23)C2CCCCC2)c1 | active: 4.11 µM |  |
| COC(=O)CCCNC(=O)CC1C(=O)NCCN1Cc1ccoc1 (stereo not drawn) |  | inactive: -2.65% |
| Cc1cccc(OCCn2c(-c3ccco3)nc3ccccc32)c1 | inconclusive [inhibitor, single point] |  |
| C/C(=N\NC(=S)NC(C)C)c1ccccc1 | inconclusive [inhibitor, single point] |  |
| COc1cc(C2C(C(=O)OC(C)C)=C(C)N=C3SCCC(=O)N32)ccc1OCc1ccccc1 (stereo not drawn) | active: 13 µM |  |
| CCN(CC)Cc1nc2c(c(=O)[nH]1)C1(CCCCC1)Cc1ccccc1-2 | active: 20.6 µM |  |
| CCOc1ccc(NC(=O)COc2ccc(C(=O)N3CCC(C(N)=O)CC3)cc2OC)cc1 | inconclusive [inhibitor, single point] |  |
| Cc1ccc2nc(Nc3ccccc3)cc(C)c2c1 | inconclusive [inhibitor, single point] |  |
| O=C(/C=C/c1ccccc1Cl)N(Cc1cccs1)C1CCS(=O)(=O)C1 (stereo not drawn) | inconclusive [inhibitor, single point] |  |
| CC(C)(C)c1cc(C(=O)N/N=C/c2ccccc2O)n(-c2ccccc2)n1 | active: 6.51 µM |  |
| COc1ccccc1C(c1nnnn1Cc1ccccc1)N1CCN(C2CCCC2)CC1 (stereo not drawn) | inconclusive [inhibitor, single point] |  |
